Test results as given in the supplement of paper PMC9433436.
± gives the standard deviation of the averaged measurements. Whole data set: some 4,100 sequences, median “relative kcat/Km (krel) vs genomic leader AAAGAU” near 1.7, cut for the highest 2% near 6.5. Only a part is listed here, and it is no random draw.

Molecular target: T1, E. coli RNase P holoenzyme (M1 P RNA + rnpA protein) (UniProt P0A7Y8)
T1 sequence: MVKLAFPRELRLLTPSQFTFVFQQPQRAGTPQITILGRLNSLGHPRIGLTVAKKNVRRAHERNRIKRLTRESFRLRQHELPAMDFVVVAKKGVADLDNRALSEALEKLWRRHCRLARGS
Assay: relative kcat/Km (krel) vs genomic leader AAAGAU (relative (reference leader = 1)); higher = faster RNase P cleavage
Procedure: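 HTS-Kin: a pool of ptRNA-Met (21C construct) with all 4096 combinations of 5' leader nucleotides N(-6) to N(-1) was processed in vitro by E. coli RNase P (P RNA + rnpA/C5 protein) under multiple-turnover conditions at 37 C, pH 8, 17.5 mM MgCl2. Residual substrate was Illumina-sequenced at several fractions reacted, and relative kcat/Km (krel) was computed by internal competition kinetics, calibrated to the genomic leader (AAAGAU = 1). The listed hexamer is the varied N(-6)..N(-1) leader (DNA letters), and it sits between a fixed 5' stem-loop flank (GCAUGCACGAAAGUGCGUGCUAUGAA) and the mature tRNA-Met starting GGCUACGUAGCUCAGUUGG. Two technical replicates are averaged.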

[1] = fraction of substrate reacted: ~13-16% (15.68% repeat 1, 13.17% repeat 2)
[2] = fraction of substrate reacted: ~26-29% (28.66% repeat 1, 26.4% repeat 2)
[3] = fraction of substrate reacted: ~9-10% (9.79% repeat 1, 9.1% repeat 2)

Sequence	relative kcat/Km [1]	relative kcat/Km [2]	relative kcat/Km [3]
TTATCG	0.966 ± 0.31	1.8 ± 0.48	
TATTGC	4.4 ± 0.4	6.68 ± 3.2	3.74 ± 1.7
TTAGTG		0.934 ± 0.09	
CGATAG	1.85 ± 0.46	3.17 ± 0.85	2.33 ± 1
CTCAAA	4.92 ± 1.4	8.02 ± 3.1	4.31 ± 1.6
TGCGAT	0.782 ± 0.058	1.34 ± 0.61	0.465 ± 0.018
CCTCTC	2.08 ± 0.64	2.5 ± 0.35	1.81 ± 0.67
TGGTGC	0.913 ± 0.26	0.832 ± 0.33	0.735 ± 0.49
CTCGTG	0.177 ± 0.037	1.17 ± 0.98	
TGGGCT		0.65 ± 0.32	
GAGATT	1.64 ± 0.43	2.6 ± 1.1	1.75 ± 0.29
GAATGT			0.295 ± 0.29
ATAGTT	1.42 ± 0.72	1.26 ± 0.59	0.831 ± 0.62
GCGTCT	1.55 ± 1.1	2.35 ± 0.78	1.59 ± 0.36
AAATAA	2.92 ± 0.98	3.44 ± 1.2	2.68 ± 1.5
TGACAG	0.756 ± 0.32	2.45 ± 0.62	
GGTGAC	1.12 ± 0.18	1.82 ± 0.48	0.874 ± 0.18
GGTCCG	0.169 ± 0.08	0.64 ± 0.47	
GGGATA	0.415 ± 0.34		
GAGTAC	3.52 ± 0.29	5.26 ± 1.7	3.52 ± 1.9
TTGAAT	3.27 ± 0.73	4.03 ± 1.6	2.74 ± 0.89
ATACGA	2.72 ± 0.77	3.71 ± 1.4	2.68 ± 0.89
AAGCAC	1.53 ± 0.4	3.12 ± 1.2	2.14 ± 1.2
ATTGCG		0.619 ± 0.17	
TTTTTC	2.8 ± 0.044	3.84 ± 1.1	2.88 ± 1.2
TACTAA	6.48 ± 0.54	8.92 ± 3.4	5.23 ± 2.7
CGGACG		0.906 ± 0.41	1.05 ± 1.1

Sequence	relative kcat/Km [1]	relative kcat/Km [2]	relative kcat/Km [3]
GCAGAA	1.37 ± 1.1	1.61 ± 0.17	
ATATTC	2.43 ± 0.22	3.4 ± 1.6	2.33 ± 1
CATACG		1.46 ± 0.63	
GACTTT	4.5 ± 0.87	6.45 ± 3.2	2.81 ± 0.56
CTAGCC	1.49 ± 0.74	1.28 ± 0.23	0.965 ± 0.36
GTCACC	4.83 ± 0.44		3.43 ± 0.98
AATTTC	2.27 ± 0.84	2.43 ± 0.8	2.12 ± 0.34
GGGAAA	1.63 ± 0.29	2.12 ± 0.69	2.05 ± 1.2
AATGTC	1.21 ± 0.24	1.45 ± 0.34	
AACACG	0.759 ± 0.32	2.2 ± 0.65	
TGAACA	1.34 ± 0.41	1.69 ± 0.24	1.16 ± 0.43
GACAGT		2.04 ± 1.8	
AGCGCC	2.6 ± 0.7	3.41 ± 1	1.8 ± 0.34
AGACGA	2.42 ± 0.11	3.91 ± 1.5	2.74 ± 1.4
GAGGCA	1.04 ± 1	0.75 ± 0.044	
GCCTGT		1.64 ± 0.79	
CAGAGC	1.56 ± 0.32	1.76 ± 0.23	1.09 ± 0.4
ACTTTT	2.24 ± 0.19	3.25 ± 1.3	1.91 ± 0.69
CATATA	2.374 ± 0.0066	3.14 ± 1.2	2.3 ± 0.95
AACAAC	3.22 ± 0.17	4.45 ± 1.8	2.99 ± 0.85
TTTCCC	1.91 ± 0.14	2.47 ± 0.92	1.91 ± 0.45
TCCGTT	2.08 ± 0.3	2.78 ± 1.2	1.84 ± 0.88
ATATAG	1.77 ± 0.48	3.88 ± 1.4	2.16 ± 1.9
TTTACT	2.36 ± 0.14	3.43 ± 1.1	2.32 ± 0.92
TCAAGA	2.33 ± 0.33	3.47 ± 1.4	2.15 ± 0.26
TACCCA	1.94 ± 0.16	3.27 ± 1.1	1.41 ± 0.63
